Data reported in article PMC5312353.
Numbering of substitutions follows the chain as printed. No constants are given. Whether binding was seen depends on the method and setting. For some assays here: In cells and extracts the contact can be indirect. Some results given as binding are weak or reduced against the parent protein; the word gives no strength. For some assays here: Sequences can lack the tags named with a protein.

The chains behind the UniProt entries cited, without tags or fusion partners. Where a name states a change or a piece, a line headed by the entry shows the natural chain unless it says otherwise. A line that says so, or that is headed by a name, gives the form on record, which may keep a tag or linker. Residues count along the entry.
UniProt P28698: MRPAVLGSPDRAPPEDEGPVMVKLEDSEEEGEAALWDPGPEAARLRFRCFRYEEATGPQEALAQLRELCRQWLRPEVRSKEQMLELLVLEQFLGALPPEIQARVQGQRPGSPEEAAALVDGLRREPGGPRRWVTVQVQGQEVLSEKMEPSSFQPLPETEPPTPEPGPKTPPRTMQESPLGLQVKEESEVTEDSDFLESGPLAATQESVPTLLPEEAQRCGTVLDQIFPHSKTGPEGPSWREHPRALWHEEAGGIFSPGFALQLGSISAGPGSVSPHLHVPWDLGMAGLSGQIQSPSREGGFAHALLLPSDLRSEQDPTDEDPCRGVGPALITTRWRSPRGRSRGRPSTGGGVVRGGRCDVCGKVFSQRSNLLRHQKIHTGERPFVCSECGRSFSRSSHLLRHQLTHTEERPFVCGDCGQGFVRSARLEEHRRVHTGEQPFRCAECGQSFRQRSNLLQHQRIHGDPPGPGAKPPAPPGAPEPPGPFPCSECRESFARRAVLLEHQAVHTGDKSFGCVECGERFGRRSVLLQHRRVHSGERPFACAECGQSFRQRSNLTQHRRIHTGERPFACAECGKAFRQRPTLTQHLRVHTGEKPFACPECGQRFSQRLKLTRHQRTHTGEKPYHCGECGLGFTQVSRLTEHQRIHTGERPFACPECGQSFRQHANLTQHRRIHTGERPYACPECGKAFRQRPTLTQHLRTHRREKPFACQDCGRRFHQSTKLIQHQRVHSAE
MZF-1_(73–485)-c-Myc fragment: residues 322-734 of P28698
MZF-1-c-Myc (full-length MZF-1) (P28698-2, form named): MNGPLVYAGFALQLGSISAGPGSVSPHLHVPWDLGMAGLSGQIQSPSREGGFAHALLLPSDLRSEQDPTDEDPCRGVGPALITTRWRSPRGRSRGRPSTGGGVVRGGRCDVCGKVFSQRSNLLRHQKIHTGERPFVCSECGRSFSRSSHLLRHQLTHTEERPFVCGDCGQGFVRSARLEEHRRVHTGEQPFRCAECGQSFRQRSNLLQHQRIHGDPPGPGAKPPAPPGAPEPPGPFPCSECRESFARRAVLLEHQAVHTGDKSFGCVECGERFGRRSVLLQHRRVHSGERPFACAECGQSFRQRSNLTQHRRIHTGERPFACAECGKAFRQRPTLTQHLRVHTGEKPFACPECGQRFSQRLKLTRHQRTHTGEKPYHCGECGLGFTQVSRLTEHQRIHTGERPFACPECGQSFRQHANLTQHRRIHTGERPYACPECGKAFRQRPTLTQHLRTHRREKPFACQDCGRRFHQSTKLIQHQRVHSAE
MZF-1_(1–141)-c-Myc fragment (P28698-2, form named): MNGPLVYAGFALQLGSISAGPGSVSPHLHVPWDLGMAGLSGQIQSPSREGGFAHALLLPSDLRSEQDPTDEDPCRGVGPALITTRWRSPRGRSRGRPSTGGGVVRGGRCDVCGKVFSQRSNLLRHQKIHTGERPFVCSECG
MZF-1_(1–72)-c-Myc fragment (P28698-2, form named): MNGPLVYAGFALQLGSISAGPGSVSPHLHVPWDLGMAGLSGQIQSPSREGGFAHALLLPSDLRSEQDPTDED
MZF-1_(1–60)-c-Myc fragment (P28698-2, form named): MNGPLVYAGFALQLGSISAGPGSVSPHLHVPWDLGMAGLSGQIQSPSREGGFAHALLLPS

What was measured:
[1] = target: T1, mutant Elk-1_(145–157)-c-Myc fragment (R147, R150, R155 to alanine) (human) (UniProt P19419); assay: co-IP; HEK-293 cells co-transfected with 5 μg of the FLAG-tagged full-length partner and a c-Myc-tagged protein or fragment; IP with c-Myc monoclonal antibody, IB with anti-FLAG
T1 sequence: LAASSANEYMASG

[2] = target: T2, Elk-1-c-Myc (amino acids 1–428) (human) (UniProt P19419); assay: as above
T2 sequence: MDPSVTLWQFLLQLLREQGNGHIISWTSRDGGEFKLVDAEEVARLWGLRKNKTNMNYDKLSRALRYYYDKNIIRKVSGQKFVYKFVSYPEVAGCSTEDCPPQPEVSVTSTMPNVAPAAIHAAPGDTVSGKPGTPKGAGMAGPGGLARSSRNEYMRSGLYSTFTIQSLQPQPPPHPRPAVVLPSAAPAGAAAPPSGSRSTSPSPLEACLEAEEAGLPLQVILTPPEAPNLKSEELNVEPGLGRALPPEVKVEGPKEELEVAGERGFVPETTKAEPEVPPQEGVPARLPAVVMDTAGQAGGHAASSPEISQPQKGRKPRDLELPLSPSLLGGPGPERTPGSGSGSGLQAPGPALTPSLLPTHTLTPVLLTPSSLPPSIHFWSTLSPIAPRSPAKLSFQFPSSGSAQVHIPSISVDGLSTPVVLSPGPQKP

[3] = target: T3, mutant Elk-1-c-Myc fragment, amino acids 145–428 (R147, R150, R155 to alanine) (human) (UniProt P19419); assay: as above
T3 sequence: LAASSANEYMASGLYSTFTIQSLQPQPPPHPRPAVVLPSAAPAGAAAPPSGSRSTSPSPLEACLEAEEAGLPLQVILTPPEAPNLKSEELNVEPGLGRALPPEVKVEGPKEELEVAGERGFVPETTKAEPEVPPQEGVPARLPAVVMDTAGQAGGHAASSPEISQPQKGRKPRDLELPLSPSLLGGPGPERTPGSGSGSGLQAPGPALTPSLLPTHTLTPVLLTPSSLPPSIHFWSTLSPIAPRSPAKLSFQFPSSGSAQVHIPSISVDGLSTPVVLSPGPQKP

[4] = target: T4, Elk-1_(145–157)-c-Myc fragment (heparin-binding domain) (human); assay: as above
T4 sequence: LARSSRNEYMRSG

[5] = target: T5, Elk-1-c-Myc fragment, amino acids 87–325 (human) (UniProt P19419); assay: as above
T5 sequence: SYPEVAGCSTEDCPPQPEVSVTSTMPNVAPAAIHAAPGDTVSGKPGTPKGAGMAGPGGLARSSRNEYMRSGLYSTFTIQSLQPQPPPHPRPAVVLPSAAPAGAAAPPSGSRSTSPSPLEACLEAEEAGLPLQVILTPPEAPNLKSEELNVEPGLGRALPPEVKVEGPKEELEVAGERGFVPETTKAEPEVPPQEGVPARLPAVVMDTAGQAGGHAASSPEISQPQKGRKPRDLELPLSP

[6] = target: T6, Elk-1-c-Myc fragment, amino acids 145–428 (human) (UniProt P19419); assay: as above
T6 sequence: T3 sequence with A3R, A6R, A11R

[7] = target: T7, Elk-1-c-Myc fragment, amino acids 87–428 (human) (UniProt P19419); assay: as above
T7 sequence: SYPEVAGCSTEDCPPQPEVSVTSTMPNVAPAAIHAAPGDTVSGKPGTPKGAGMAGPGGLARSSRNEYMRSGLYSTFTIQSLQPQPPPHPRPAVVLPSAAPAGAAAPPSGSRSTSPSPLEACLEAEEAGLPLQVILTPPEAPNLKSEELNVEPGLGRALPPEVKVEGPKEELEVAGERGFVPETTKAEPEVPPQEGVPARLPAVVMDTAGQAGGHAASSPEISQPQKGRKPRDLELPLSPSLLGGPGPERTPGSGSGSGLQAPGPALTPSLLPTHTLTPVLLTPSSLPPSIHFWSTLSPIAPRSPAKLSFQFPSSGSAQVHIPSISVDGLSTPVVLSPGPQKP

[8] = target: T8, Ets-like protein-1 (Elk-1), endogenous in MB-231 cells (human (endogenous in MB-231)) (UniProt P19419); assay: co-IP; endogenous proteins of MB-231 cells; extracts IP with anti-MZF-1 or anti-Elk-1 antibody or control rabbit IgG, IB with both antibodies sequentially
T8 sequence: T2 sequence

[9] = target: T8, Ets-like protein-1 (Elk-1), endogenous in MB-231 cells (human (endogenous in MB-231)); assay: Re-ChIP (sequential chromatin immunoprecipitation); MB-231 chromatin pulled down with anti-Elk-1 and then anti-MZF-1 antibodies, and in the reverse order; PCR of the PKCα promoter
[10] = target: myeloid zinc finger 1 (MZF-1), endogenous in MB-231 cells (human (endogenous in MB-231)) (UniProt P28698); assay: co-IP; endogenous proteins of MB-231 cells; extracts IP with anti-MZF-1 or anti-Elk-1 antibody or control rabbit IgG, IB with both antibodies sequentially
[11] = target: FLAG-MZF-1ΔDBD (deletion mutant lacking the C-terminal region) (human) (UniProt P28698); assay: co-IP; MB-231 cells transfected with 5 μg FLAG-MZF-1ΔDBD or Elk-1-c-MycΔDBD; IP with FLAG or c-Myc antibody, endogenous partner detected by IB
[12] = target: MZF-1-c-Myc (full-length MZF-1) (human) (UniProt P28698); assay: co-IP; HEK-293 cells co-transfected with 5 μg of the FLAG-tagged full-length partner and a c-Myc-tagged protein or fragment; IP with c-Myc monoclonal antibody, IB with anti-FLAG
[13] = target: T9, MZF-1_(60–72)-c-Myc fragment (acidic domain) (human) (UniProt P28698); assay: as above
T9 sequence: SDLRSEQDPTDED

[14] = target: MZF-1_(73–485)-c-Myc fragment (human) (UniProt P28698); assay: as above
[15] = target: MZF-1_(1–141)-c-Myc fragment (human) (UniProt P28698); assay: as above
[16] = target: MZF-1_(1–72)-c-Myc fragment (human) (UniProt P28698); assay: as above
[17] = target: MZF-1_(1–60)-c-Myc fragment (human) (UniProt P28698); assay: as above

FLAG-MZF-1 (full length, amino acids 1-485) (from UniProt P28698-2 1-485)
binding [1]: no binding
binding [2]: binds
binding [3]: no binding
binding [4]: binds
binding [5]: binds
binding [6]: binds
binding [7]: binds

myeloid zinc finger 1 (MZF-1), endogenous in MB-231 cells (from UniProt P28698 1-734)
binding [8]: binds
binding [9]: binds

B1: Ets-like protein-1 (Elk-1), endogenous in MB-231 cells (protein, UniProt P19419 1-428)
chain: T2 sequence
binding [10]: binds
binding [11]: binds

B2: FLAG-Elk-1 (full length, amino acids 1-428) (protein, UniProt P19419 1-428)
chain: T2 sequence
binding [12]: binds
binding [13]: binds
binding [14]: no binding
binding [15]: binds
binding [16]: binds
binding [17]: no binding
